Source: patent US20040185460

Key:
inactivated MKK4, P45985 = molecular target: T1, inactivated MKK4, P45985
T1 chain: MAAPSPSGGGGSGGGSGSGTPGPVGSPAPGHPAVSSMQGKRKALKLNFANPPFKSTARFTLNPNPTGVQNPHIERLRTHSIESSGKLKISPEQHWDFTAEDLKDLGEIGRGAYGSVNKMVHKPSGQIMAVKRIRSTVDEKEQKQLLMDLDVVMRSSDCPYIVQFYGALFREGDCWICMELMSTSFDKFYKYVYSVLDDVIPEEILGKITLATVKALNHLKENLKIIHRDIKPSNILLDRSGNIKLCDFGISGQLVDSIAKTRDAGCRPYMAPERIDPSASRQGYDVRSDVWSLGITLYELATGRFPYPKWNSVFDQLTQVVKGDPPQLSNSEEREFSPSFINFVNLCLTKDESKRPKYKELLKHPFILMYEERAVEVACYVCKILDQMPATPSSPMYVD

[1] = molecular target: myelin basic protein (UBI #13-104)

B1: baculoviral human GST-MLK7KD/LZ (protein)
chain: [… about 200 residues …]PANYVAPCRPAASPAPPPSRPSSPVHVAFERLELKELIGAGGFGQVYRATWQGQEVAVKAARQDPEQDAAAAAESVRREARLFAMLRHPNIIELRGVCLQQPHLCLVLEFARGGALNRALAAANAAPDPRAPGPRRARRIPPHVLVNWAVQIARGMLYLHEEAFVPILHRDLKSSNILLLEKIEHDDICNKTLKITDFGLAREWHRTTKMSTAGTYAWMAPEVIKSSLFSKGSDIWSYGVLLWELLTGEVPYRGIDGLAVAYGVAVNKLTLPIPSTCPEPFAKLMKECWQQDPHIRPSFALILEQLTAIEGAVMTEMPQESFHSMQDDWKLEIQQMFDELRTKEKELRSREEELTRAALQQKSQEELLKRREQQLAEREIDVLERELNILIFQLNQE
Question: With B1 as the protein, how does the “in vitro kinase cascade: phosphorylation/activation of MKK4, read as phosphorylated GST-JNK1β1(K55A) (phospho-specific JNK antibody, fluorescence)” value (inactivated MKK4, P45985) read?
Answer: The value was “both GST-MLK7KD and GST-MLK7KD/LZ were able to phosphorylate MKK4 and as a consequence of this phosphorylation event, MKK4 was activated”.

Question: What about the “phosphorylation of myelin basic protein (radioactive counts, Multiscreen TCA in-plate assay)” value [1] of the same protein?
Answer: The value was “Both GST-MLK7KD and GST-MLK7KD/LZ were able to phosphorylate myelin basic protein”.
